This passage reports switch fluorescence ratio results from the supplement of paper PMC10126150.

Sequences with one replicate were seen in a single cluster, so their values are uncertain.
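Further: ATP exposure 15 min at 22 °C before imaging.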

This data set deals with ATP. The data set can be described thus: switch fluorescence ratio, 500 uM ATP over buffer (Cy3 cluster intensity, sum of 5 cycles each) (fold (ratio)); higher = stronger signal-on switching upon ATP binding; sequences stand for … in TCGTCGGCAGCGTCAGATGTGTATAAGAGACAGTTTTTTTTTTTTTTTTTTTTTTTTT…TC. The conditions noted are these: aptamer strand: ATP DNA aptamer (quencher-CACCTGGGGGAGTATTGCGGAGGAAGG + anchor), 100 nM annealed; ATP concentration: 500 uM; one replicate. Put shortly:
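Switching-strand clusters labelled with Cy3 on a modified Illumina MiSeq flow-cell were annealed to 100 nM quencher-labelled ATP aptamer, imaged in selection buffer, and re-imaged after 15 min with 500 uM ATP at 22 °C. This was done over five cycles with NaOH stripping and re-annealing in between. The fluorescence ratio is summed target-cycle over summed buffer-cycle Cy3 intensity per cluster, averaged per switch-domain sequence, excluding clusters outside 100-1000 RFU.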
Turning to GGCAGGTATG, the switch fluorescence ratio amounted to 0.994.

For the sequence ACATTGTAGG, the switch fluorescence ratio is 1.03.

As for ACGGGGCGGA, the switch fluorescence ratio turned out to be 1.

With GTAATTGGGG, the switch fluorescence ratio was found to be 0.949.

In the case of ACGAAACGAG, the switch fluorescence ratio was 1.12.

On to GCGTCGTAAC, for which the switch fluorescence ratio is 0.995.

For ATGAACACGT, the switch fluorescence ratio was found to be 0.99.

For the sequence ATGCGAGATA, the switch fluorescence ratio came out at 0.98.

Regarding TCTGTCTA, the switch fluorescence ratio came out at 0.99.

For GTGCGTTAAT, the switch fluorescence ratio was found to be 1.01.

On to AATTGCTGCA, for which the switch fluorescence ratio worked out at 0.975.

CCTAGCCCCG: the switch fluorescence ratio amounted to 1.08.

Take CAGACACGAT: the switch fluorescence ratio is 1.11.

As to CGGGCTTATC, the switch fluorescence ratio amounted to 1.01.

In the case of ACATGACCTA, the switch fluorescence ratio is 1.17.

In the case of CGTTAAAACA, the switch fluorescence ratio stood at 1.1.

On to CGGAAACGCG, for which the switch fluorescence ratio was 1.

As to ATGCGTGTTC, the switch fluorescence ratio came to 0.991.

As for AAAGCTTCGC, the switch fluorescence ratio was 0.935.

With TTGCACTGT, the switch fluorescence ratio was found to be 1.18.

Regarding TATCGCCTTA, the switch fluorescence ratio was determined as 0.987.

As for GTTCTAACTA, the switch fluorescence ratio worked out at 0.986.

Regarding CGTCTCTTTA, the switch fluorescence ratio came to 0.99.

With GAATAATCCT, the switch fluorescence ratio amounted to 1.13.

For GTCCGACTGA, the switch fluorescence ratio is 0.992.

As to AAAGGGAGTC, the switch fluorescence ratio was determined as 0.954.

Consider GATCCAGTTT, for which the switch fluorescence ratio amounted to 0.957.

In the case of TGGTGGGGA, the switch fluorescence ratio is 0.962.

Turning to TTGTCGGAGA, the switch fluorescence ratio is 1.

As for TGTTCGATCT, the switch fluorescence ratio was determined as 1.02.

For TCGAGGGACG, the switch fluorescence ratio was 1.06.

As to GTCAAAGTAA, the switch fluorescence ratio worked out at 1.03.

For TTAATTGAAA, the switch fluorescence ratio was 0.988.

On to AGCGCATTCC, for which the switch fluorescence ratio amounted to 1.45.

In the case of ACAGGGGCAT, the switch fluorescence ratio came to 1.04.

In the case of CGAGTGTACG, the switch fluorescence ratio was found to be 1.07.

With AAGGAGTCAA, the switch fluorescence ratio worked out at 1.06.

Turning to CCATTTCTT, the switch fluorescence ratio was 1.06.

In the case of TATACCTT, the switch fluorescence ratio came out at 1.15.

For GCTTACCTCG, the switch fluorescence ratio was 1.03.

For TAAGAGGGCG, the switch fluorescence ratio is 0.963.

On to GTCGGGAACT, for which the switch fluorescence ratio was determined as 1.02.

For AAGATTCTAG, the switch fluorescence ratio came to 0.961.

In the case of ACAGTCGGAC, the switch fluorescence ratio stood at 1.02.

For the sequence ATTCGAGTGG, the switch fluorescence ratio came to 0.996.

Regarding TGAGTGCTCG, the switch fluorescence ratio came out at 1.01.

GCGTGATTTT: the switch fluorescence ratio is 0.99.

With AACACAGATA, the switch fluorescence ratio came to 1.01.

In the case of ATTAAAGAC, the switch fluorescence ratio came out at 0.991.

On to GTCGGCGTGG, for which the switch fluorescence ratio was 1.02.

Take AATTTACATT: the switch fluorescence ratio amounted to 1.07.

Consider AGTGGAGTTT, for which the switch fluorescence ratio was 1.03.

With TGCTTGACA, the switch fluorescence ratio turned out to be 0.996.

Regarding TGCAACGTGT, the switch fluorescence ratio came to 0.964.

Regarding TGACTATCT, the switch fluorescence ratio is 0.999.

Take ATCCTTCTGG: the switch fluorescence ratio was found to be 1.02.

For ATGCTAGTGA, the switch fluorescence ratio was determined as 1.01.

ACGTCTGTCG: the switch fluorescence ratio was 0.963.

Regarding GGGCATCATA, the switch fluorescence ratio is 0.995.

As for CTGTTTG, the switch fluorescence ratio is 0.936.

Take GCGGGGGCCC: the switch fluorescence ratio was found to be 1.03.

As for CATGTTAGTG, the switch fluorescence ratio worked out at 0.952.

With AGTTTGAGCG, the switch fluorescence ratio was determined as 1.04.

Regarding TTCTTAACAA, the switch fluorescence ratio turned out to be 1.08.

For the sequence TTTGTCAA, the switch fluorescence ratio is 1.08.

On to CACTACATAG, for which the switch fluorescence ratio came out at 1.08.

GCTCTGTGTC: the switch fluorescence ratio is 1.14.
